Reference: ChEMBL document CHEMBL1157539, “Thousands of chemical starting points for antimalarial lead identification” (Nature, 2010)
The full ranking holds about 13,000 compounds; the median of “IFI” is about 4, and the highest 2% start at about 17. The list shows a part of the results.

Test: GSK_TCMDC: Inhibition Frequency Index (IFI). The number of non-kinase HTS assays where a compound showed > 50 % inhibition, expressed as a percentage of the number of such assays in which the compound was tested (-0 is zero)
Assay type: functional

Row | SMILES | IFI [%]
1 | CCOc1ccccc1CNc1nccc(NCc2ccccc2OC)n1 | 15.4
2 | COc1ccc2nccc(NC(=O)N3CCC(NCc4cc5c(F)ccc(F)c5[nH]4)CC3)c2n1 | 2.24
3 | CC(C)(Oc1ccc(Cl)cc1)C(=O)NCCC1CCN(CCCCCNC(=O)/C=C/c2ccc(Cl)c(Cl)c2)CC1 | 12.3
4 | Cc1onc(-c2ccccc2)c1-c1nc(NCc2ccccc2Cl)no1 | 3.13
5 | COc1cc2nc(NCCc3ccccc3)nc(NCc3ccc(C#N)cc3)c2cc1OC | 11.2
6 | c1ccc(-c2ccc(CNCCCNc3nc4ccccc4[nH]3)cc2)cc1 | 9.46
7 | Cc1c(C)c2c(c(C)c1O)CC[C@](C)(C(=O)N1CCC(CCN3CCC(c4c[nH]c5ccccc45)CC3)CC1)O2 | 5.88
8 | Oc1ccc2[nH]cc(C3CCN(CCCNCc4ccc(-c5ccccc5)cc4)CC3)c2c1 | 4.14
9 | COc1cccc(Nc2nc(N)c3ccccc3n2)c1 | 3.05
10 | OC(CNCc1ccccc1Oc1ccccc1)c1cccc(C(F)(F)F)c1 (stereo not drawn) | 4.1
11 | COc1ccc2nccc(NCC3(O)CCC(NCc4ccc5c(n4)NC(=O)CS5)CC3)c2n1 (stereo not drawn) | 2.29
12 | CC(C)c1ccc(NC(=O)c2ccc(CN3CCCN(Cc4cccc(O)c4)CC3)cc2)cc1 | 13.6
13 | Nc1ncc(-c2ccc(Br)cc2)c(N)n1 | -0
14 | CCCN(Cc1nnc(-c2ccco2)o1)C(=O)C1CCCN(C(=O)c2ccc(Cl)cc2)C1 (stereo not drawn) | 2.25
15 | Cc1c(C(=O)C2CC2CN2CCC(N3CCCCC3)CC2)sc2ccccc12 (stereo not drawn) | 7.84
16 | N#Cc1ccc2c(c1)CCN(CCC1CCC(NC(=O)c3ccc(-c4ccccn4)s3)CC1)CC2 (stereo not drawn) | 2.67
17 | Oc1ccc(Cl)c2c1C(c1ccccc1)=NCC2 | 0.75
18 | O=C(CCNc1ccnc(NCC2CCCCC2)n1)Nc1ccccc1 | 8.89
19 | COc1ccc(CCn2c(=N)c(C(=O)NCc3ccc(C)cc3)cc3c(=O)n4ccccc4nc32)cc1 | 0.87
20 | FC(F)(F)c1ccc2[nH]c(-c3ccc(-c4cccc(CNCc5ccccc5)c4)s3)nc2c1 | 11.4

Row | SMILES | IFI [%]
21 | CC(Cc1ccc(NC(=O)c2ccc(CC(C)NCc3ccc(Cl)cc3)cc2)cc1)NCCc1cccc(Cl)c1 (stereo not drawn) | 7.8
22 | CC(C)(C)SC1SC(SC(C)(C)C)C(OC(=O)c2ccccc2)C(OC(=O)c2ccccc2)C1OC(=O)c1ccccc1 (stereo not drawn) | -0
23 | O=C(NCCCCCN1CCC(c2c[nH]c3ccccc23)CC1)Nc1ccc(Cl)cc1Cl | 7.14
24 | O=C(/C=C/c1ccc(Cl)c(Cl)c1)N1CCCC(CCCN2CCC(c3c[nH]c4ccccc34)CC2)C1 (stereo not drawn) | 8.76
25 | COc1c(C2CCN(CCCCNC(=O)c3ccc(NC(=O)c4ccc(C#N)cc4)cc3)CC2)ccc2c1CCCC2 | 9.26
26 | CC1(C)S(=O)(=O)CC(O)CS1(=O)=O | -0
27 | N=C(N)c1ccc(C(=O)Nc2cccc(C(=N)N)c2)cc1 | -0
28 | Cc1cc(Oc2cc(NC(=O)c3sc4ncn(Cc5ccccc5F)c(=O)c4c3C)cc([N+](=O)[O-])c2)ccc1Cl | 0.88
29 | N#Cc1cc(C(=O)c2cc(Cl)ccc2O)cn(-c2cccc(C(F)(F)F)c2)c1=O | 7.44
30 | OCC1CCN(Cc2ccc(-c3ccc(-c4nc5cc(F)ccc5[nH]4)s3)cc2)CC1 | 2.97
31 | CCC(C)NS(=O)(=O)c1ccc2nc(Nc3ccc(C)c(Cl)c3)n([C@H](C)C(C)(C)C)c2c1 (stereo partly drawn) | 7.41
32 | CCc1ccc(C2CCN(CCCCNC(=O)c3ccc(NC(=O)c4ccc(Cl)cc4)cc3)CC2)c(OC)c1 | 7.89
33 | COc1cccc2c(NN=Cc3ccc(Cl)cc3)ccnc12 | 2.96
34 | COc1ccccc1CCNc1nc(C)cc(N[C@@H](Cc2ccccc2)C(=O)NCCc2ccccc2)n1 | 11.9
35 | Nc1nc(N)c2c(ccc3c2ncn3Cc2ccccc2)n1 | 6.43
36 | NC(=O)c1ccsc1NC(=O)CNC(c1ccccc1)c1ccccc1 | 2
37 | CCNc1cc(C(=O)N[C@@H](Cc2ccccc2)[C@H](O)CN[C@@H](C)c2cccc(OC)c2)cc(N2CCCC2=O)c1 | 0.72
38 | Cn1cc(C2CCN(CCCCNC(=O)c3ccc(-c4ccc(C(F)(F)F)cc4)c(CO)c3)CC2)c2ccccc21 | 3.6
39 | CC(C)(Oc1c(C2CCN(CCCCNC(=O)c3ccc(-c4ccc(C#N)cc4)cc3)CC2)ccc2c1CCCC2)C(N)=O | 6.82
40 | O=C(Nc1cccc(CN2CCCN(Cc3ccc(O)cc3)CC2)c1)c1cc2ccccc2s1 | 4.48

Row | SMILES | IFI [%]
41 | CN=C(S)NN=C(C)c1ccccn1 | 5.84
42 | CCc1c[nH]c2c(N(c3ccccc3)S(C)(=O)=O)cc(C(=O)N[C@@H](Cc3ccccc3)[C@H](O)CNC(C)(C)CCCC(C)C)cc12 | 14.5
43 | FC(F)(F)c1ccc2[nH]c(-c3ccc(-c4cccc(CNCC5CCCO5)c4)cc3)nc2c1 (stereo not drawn) | 6.8
44 | Fc1ccc2[nH]c(-c3ccc(-c4ccc(CNCc5cnn(-c6ccccc6)n5)cc4)cc3)nc2c1 | 14.5
45 | O=C(Nc1ccc(N2CCNCC2)cc1)c1ccn2ncc(-c3cccc(Cl)c3)c2n1 | 11.1
46 | CC(=O)Nc1nc(C(=O)Nc2cccc(-c3cccc(-c4nc5cc(F)ccc5[nH]4)c3)c2)cs1 | 2.61
47 | N#Cc1ccc(-c2ccc(C(=O)NC3CCN(CCN4CCC(c5cn(CCOC6CCCCO6)c6ccccc56)CC4)CC3)cc2)cc1 (stereo not drawn) | 8.11
48 | c1ccc(Oc2ccc(Nc3ccnc4ccc(-c5ccccn5)cc34)cc2)cc1 | 1.61
49 | CC(CCON1C(N)=NC(N)=NC1(C)C)c1ccc(Cl)cc1 (stereo not drawn) | 3
50 | CN(C)c1ccc2c(c1)Sc1cc(N(C)C)ccc1N2C(=O)CCCC(=O)O | 7.14
51 | CN(C)CCCOc1ccccc1CN1CC[C@H](NC(=O)c2ccc(Cl)c(Cl)c2)C1 | 8.82
52 | CCCc1ccc(C2CCN(CCCCNC(=O)c3ccc(NC(=O)c4ccc(Cl)cc4)cc3)CC2)cc1 | 3.64
53 | COCCNCc1cccc(-c2ccc3c(Nc4ccc(Oc5cccnc5)cc4)ccnc3c2)c1 | 9.92
54 | O=S1(=O)NC2(CCN(CCc3ccc(Cl)cc3)CC2)Nc2cc(F)cc(F)c21 | 2.04
55 | CCCCCN1CCCN(Cc2cccc(NC(=O)c3ccc4ccccc4c3)c2)CC1 | 4.11
56 | CCc1ccc(-c2nc3cc(NC(=O)c4ccc([N+](=O)[O-])o4)ccc3o2)cc1 | -0
57 | CCCCCCNc1c2ccccc2nc2ccccc12 | 7.8
58 | Cc1cc(N[C@@H](Cc2ccccc2)C(=O)NCCc2ccccc2)nc(NCC2CCCCC2)n1 | 11.4
